Among all 320,000 compounds or so, about 200 (0.062%) were called active. Inconclusive results, whose numbers are uncertain, are shown with a selection of clear calls. Calls follow the shape of the dose curve; as a rule, active = well fitted activation curve with a large enough effect; inconclusive = small, poorly fitted or top-dose-only effect; inactive = no such curve, though single readings can be large or run the other way. No potency is given beside an inconclusive call; the fits are too rough.
assay: qHTS assay for re-activators of p53 using a Luc reporter; conditions: H1299 p53-A138V BP100-luciferase reporter, luminescence, 24 h; series mostly up to 92.2 µM; also: nearly all actives have a fitted effect of over 45% in size
Summary of the method: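 H1299 (p53-null), stable ts p53-A138V + BP100-Luc; 1000 cells/well, Opti-MEM/10% FBS; cpd 4 pt, 1:5; 24 h, 37 deg C, 5% CO2; detection reagent 10 min RT; luminescence.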
Potency is read from the fitted curve at half-maximal effect; tags tell the direction and shape of the fitted curve.

| SMILES | Potency |
| --- | --- |
| Fc1ccc(-c2cnn3c(-c4ccncc4)ccnc23)cc1 | inconclusive [activator, partial curve, poor fit] |
| O=[N+]([O-])c1ccc(Sc2nnnn2-c2ccccc2)c(Cl)c1 | inconclusive [activator, single point] |
| COc1cc(/C=N/Nc2ncc(C(F)(F)F)cc2Cl)cc(OC)c1O | inactive |
| CCCCn1c(N)c(N(Cc2ccccc2OC)C(=O)c2ccc(N3CCCC3=O)cc2)c(=O)[nH]c1=O | inactive |
| O=C(Nc1ccc2c(c1)OCCO2)c1cnc2n(c1=O)CCS2 | inconclusive [activator, full curve, poor fit] |
| CCN(CC)c1ccc(SS(=O)(=O)O)cc1 | inconclusive [activator, partial curve, poor fit] |
| CCCCOC(=O)c1ccc(NC(=O)COC(=O)CSc2nc(C)cc(C)n2)cc1 | inconclusive [activator, partial curve, poor fit] |
| CC(C)(C)c1ccc(OCCC(=O)Nc2cccc(S(=O)(=O)N3CCCCC3)c2)cc1 | inconclusive [activator, single point] |
| O=C(Nc1ccc2c(c1)OCCO2)C(=S)NCc1ccccc1 | inconclusive [activator, partial curve, poor fit] |
| O=C(NC1CCCCC1)c1cc(C2CC2)nn1-c1ccccc1 | inactive |
| C=CCNc1nc(-c2ccccn2)nnc1-c1ccccc1 | inconclusive [activator, full curve, poor fit] |
| N#Cc1c(NC(=O)/C=C/c2ccco2)sc2c1CCCC2 | inconclusive [activator, partial curve, poor fit] |
| CCn1cc(C(=O)NCCCN2CC(C)CC(C)C2)c2cc(OC)c(OC)cc2c1=O (stereo unspecified) | inconclusive [activator, partial curve, poor fit] |
| CCOC(=O)C(CC)n1cnc2c(nnn2-c2ccc(C)cc2)c1=O (stereo unspecified) | inconclusive [activator, single point] |
| Cc1ccc(NC(=S)N/C(=N/S(=O)(=O)c2ccccc2)c2ccccc2)cc1 | inconclusive [activator, partial curve, poor fit] |
| O=C(Cc1ccccc1)N/N=C/c1cccs1 | inconclusive [activator, single point] |
| COc1cc(C(C)=O)ccc1Oc1ncnc2c1cnn2-c1cccc(Cl)c1 | inconclusive [activator, partial curve, poor fit] |
| CC(/C=C1\SC(=S)N(CC(=O)O)C1=O)=C\c1ccccc1 | inconclusive [activator, single point] |
| Cc1ccc(COc2ccc(-c3nnco3)cc2)cc1 | inconclusive [activator, partial curve, poor fit] |
| Cc1cc(C)n(-c2nnc(C)n2/N=C/c2cc(Br)ccc2OCc2ccccc2)n1 | inconclusive [activator, partial curve, poor fit] |
| COc1ccc(-c2nnn(CC(=O)Nc3ccc4c(c3)OCCO4)n2)cc1OC | inconclusive [activator, single point] |
| CCN(C[C@H]1N[C@@](C)(C(=O)OC)[C@H]2C(=O)N(C)C(=O)[C@@H]12)C(=O)COc1ccccc1 | inactive |

| SMILES | Potency |
| --- | --- |
| NC(=O)c1ccccc1NC(=O)/C=C/c1cccc(Cl)c1 | inconclusive [activator, full curve, poor fit] |
| Cc1ccc(NS(=O)(=O)c2ccc(NC(=O)C3CCCO3)cc2)cc1 (stereo unspecified) | inactive |
| N/C(Cc1ccc(Cl)cc1)=N\OC(=O)c1ccc2ccccc2c1 | inconclusive [activator, single point] |
| Clc1ccc(-c2nc3ccncc3[nH]2)cc1 | inconclusive [activator, full curve, poor fit] |
| Cc1cccc(NC(=O)C2CCN(C(=O)[C@@H]3Cc4ccccc4CN3)CC2)c1 | inconclusive [activator, single point] |
| C/C(CC(=O)Nc1ccc2ccccc2c1)=N\NC(=O)c1cnccn1 | inconclusive [activator, partial curve] |
| Cn1cnc([N+](=O)[O-])c1Sc1ccccc1 | inconclusive [activator, single point] |
| CC1=C(C)CC(C(=O)NCC(=O)c2ccccc2)C(C(=O)O)C1 (stereo unspecified) | inconclusive [activator, full curve, poor fit] |
| CCC1=C/C(=C/N(C)c2ccccc2)C(=O)S1 | inconclusive [activator, partial curve, poor fit] |
| Cc1noc(NS(=O)(=O)c2ccc(NC(=O)c3ccc(N4C(=O)c5ccccc5C4=O)cc3)cc2)c1C | inactive |
| O=C1CCCC2=C1C1(CCCC1)N=C(Nc1nc3ccccc3o1)N2 | inconclusive [activator, single point] |
| CCOC(=O)C1=C(COC(=O)CCOc2ccc(OC)cc2)NC(=O)NC1C (stereo unspecified) | inconclusive [activator, partial curve, poor fit] |
| COc1ccc(C2CC(c3ccc4ccccc4c3OC(C)=O)=NN2C(C)=O)cc1 (stereo unspecified) | inconclusive [activator, partial curve, poor fit] |
| CCOC(=O)COn1c(-n2nc(C)cc2C)nc2ccccc2c1=O | inactive |
| CCOc1ccc2nc(C(=O)N3CCCC(C)C3)sc2c1 (stereo unspecified) | inconclusive [activator, partial curve, poor fit] |
| c1ccc(Oc2cc(-n3cccn3)ncn2)cc1 | inconclusive [activator, partial curve, poor fit] |
| Cc1cc(F)ccc1N1CCC(N2CCN(C)C(CCO)C2)CC1 (stereo unspecified) | inconclusive [activator, single point] |
| Cc1nn(C)c(C)c1/C=C(/C(=O)C(C)(C)C)n1cncn1 | inconclusive [activator, single point] |
| Cc1cc(N2CCOCC2)nc2ccc(Cl)cc12 | inconclusive [activator, single point] |
| Nc1cc(C(=O)c2ccccc2)ccc1N1CCOCC1 | inconclusive [activator, partial curve, poor fit] |
| Cc1c(NS(=O)(=O)c2ccc(N)cc2)c(=O)n(-c2ccccc2)n1C | inconclusive [activator, single point] |
| CCN1C(=S)SC(=O)C1=C1C=C(C)OC(C)=C1 | inconclusive [activator, partial curve, poor fit] |

| SMILES | Potency |
| --- | --- |
| Cc1cc(N/C=C/C(=O)c2ccc(Br)cc2)no1 | inconclusive [activator, full curve] |
| COc1ccccc1-c1ccc(=O)n(CC(=O)NCc2cccs2)n1 | inconclusive [activator, single point] |
| Cc1nc(N2CCN(c3ccccn3)CC2)c2c(C)c(C(=O)N3CCN(c4ccc(F)cc4)CC3)sc2n1 | inactive |
| COc1ccc(N2CCN(C(=S)Nc3ccc(C)cc3)CC2)cc1 | inactive |
| CC(C)=CCC/C(C)=C/CNC(=O)C[C@H]1C[C@H](C(=O)N2CCOCC2)[C@@]2(C)c3[nH]c4cc(CCC(=O)N(C)C)ccc4c3CCN2C1=O | inactive |
| CCc1nc2oc3ccccc3c(=O)c2cc1C(=O)OC | inconclusive [activator, partial curve, poor fit] |
| O=C(O)Cc1sc(-c2ccccc2)nc1-c1ccccc1 | inactive |
| Cc1nn(C(C)C(=O)NCCCN2CCCCC2C)c(=O)c2c1sc1ccccc12 (stereo unspecified) | inconclusive [activator, single point] |
| COc1ccc(C(=O)/C(=C/c2cccs2)c2nc3ccccc3o2)cc1 | inactive |
| CCOC(=O)c1c(C)oc2c1c(C=NCCO)c(O)c1ccccc12 | inactive |
| O=C(NS(=O)(=O)Nc1ccccn1)c1c[nH]c2ccccc12 | inactive |
| O=C(N/N=C/c1cccc([N+](=O)[O-])c1)c1cccs1 | inconclusive [activator, full curve, poor fit] |
| O=C(NC1CCCCCCC1)c1cccc(Cl)c1 | inconclusive [activator, full curve, poor fit] |
| c1ccc(CC2CCN(c3nc4ccccc4n4nnnc34)CC2)cc1 | inconclusive [activator, full curve] |
| O=C(NC(=S)Nc1ccccn1)c1ccc(-c2ccccc2)cc1 | inconclusive [activator, partial curve, poor fit] |
| O=c1c2c(nc3nc(COc4ccccc4)[nH]n13)CCC2 | inconclusive [activator, single point] |
| O=C(Nc1cccc(S(=O)(=O)N2CCCC2)c1)c1ccc2c(=O)n3c(nc2c1)CCCCC3 | inactive |
| C=CCn1cc(C(=O)OC)c(=O)c2cc(S(=O)(=O)N3CCC(C)CC3)ccc21 | inactive |
| Cc1ccccc1NC(=O)C1C2CCC(O2)C1C(=O)O (stereo unspecified) | inconclusive [activator, single point] |
| COc1ccc(CCc2nnc(CCC(=O)N(C)Cc3ccncc3C)o2)cc1 | inactive |
| COCCNC(=O)c1nc2ccccc2s1 | inconclusive [activator, partial curve, poor fit] |
| CCn1nc(C(=O)OCC(=O)Nc2nc(-c3ccc(OC)cc3)cs2)c2ccccc2c1=O | inconclusive [activator, full curve, poor fit] |

From PubChem BioAssay AID504706 (National Center for Advancing Translational Sciences (NCATS), 2011)
